PubChem BioAssay AID624417 (National Center for Advancing Translational Sciences (NCATS), 2012)
Out of some 410,000 compounds screened, about 6,400 (1.6%) were called active. Inconclusive results, whose numbers are uncertain, are shown with a selection of clear calls. Calls follow the shape of the dose curve; as a rule, active = well fitted inhibition curve with a large enough effect; inconclusive = small, poorly fitted or top-dose-only effect; inactive = no such curve, though single readings can be large or run the other way. No potency is given beside an inconclusive call; the fits are too rough.

These compounds were tested against Glucagon-like peptide 1 receptor (Homo sapiens) (UniProt P43220) (assay: qHTS of GLP-1 Receptor Inverse Agonists (Inhibition Mode)). Conditions: HEK293 GLP-1R CRE-luciferase, luminescence, 24 h, GLP-1R form is constitutively active; activity change, negative = inhibition: at 38.3 µM (top of the series) unless noted.
UniProt P43220, sequence (P43220 whole entry, looked up): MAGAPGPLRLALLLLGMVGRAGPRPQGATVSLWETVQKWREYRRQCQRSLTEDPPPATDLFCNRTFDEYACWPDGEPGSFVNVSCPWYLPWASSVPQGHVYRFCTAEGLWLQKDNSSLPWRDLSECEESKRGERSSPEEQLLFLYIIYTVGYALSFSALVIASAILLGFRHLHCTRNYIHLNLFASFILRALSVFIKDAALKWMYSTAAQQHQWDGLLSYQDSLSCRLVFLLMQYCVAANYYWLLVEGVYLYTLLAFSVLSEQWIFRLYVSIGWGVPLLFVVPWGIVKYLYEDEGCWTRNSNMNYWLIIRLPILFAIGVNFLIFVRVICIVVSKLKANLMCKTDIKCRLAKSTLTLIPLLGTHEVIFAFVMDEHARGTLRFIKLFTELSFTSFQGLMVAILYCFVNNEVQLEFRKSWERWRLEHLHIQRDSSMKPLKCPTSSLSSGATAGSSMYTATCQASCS
Outline: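 Seeding at 200 cells/uL, 12 h culture, 24 hr compound treatment, then luciferase reagent and a luminescence read; cells are HEK293 stably expressing a constitutively active GLP-1R plus cAMP-responsive luciferase.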
% is scaled to controls: 0 for no effect and ±100 for the full control effect; potency is read from the fitted curve at half-maximal effect; tags tell the direction and shape of the fitted curve.
Also: nearly all actives have a fitted effect of over 55% in size.

| Structure (SMILES) | Potency | activity change, negative = inhibition |
| --- | --- | --- |
| O=C(C=Cc1ccc2c(c1)OCO2)OCC=Cc1ccc2c(c1)OCO2 | inconclusive [inhibitor, partial curve, poor fit] | – |
| CCCc1cc(C(=O)N2CCN(C(c3ccccc3)c3ccccc3)CC2)no1 | inconclusive [inhibitor, partial curve, poor fit] | – |
| COc1ccc(CN(C(=O)Nc2ccc(C)c(F)c2)C2CCN(C(C)=O)CC2)cc1 | – | inactive: 0.477% |
| Cc1ccccc1C(=O)Nc1nnc(SCc2cc(=O)c3c(C)ccc(C)c3[nH]2)s1 | – | inactive: 1.66% |
| CC(C)c1ccc(NC(=O)CNS(=O)(=O)c2ccc(F)cc2)cc1 | inconclusive [inhibitor, single point] | – |
| COc1ccc(-c2noc(CN(C(=O)c3ccoc3C)C(C)C)n2)cc1 | inconclusive [inhibitor, single point] | – |
| CC1CCN(S(=O)(=O)c2cc(C(=O)NCc3ccc(F)cc3)n(C)c2)CC1 | – | inactive: -19.6% |
| COc1cccc(COC(=O)c2ccc(-c3nnn(Cc4ccccc4)n3)cc2)c1 | – | inactive: -6.98% |
| COCCOC(=O)C(C#N)c1nc2ccccc2nc1N1CCN(Cc2ccccc2)CC1 (stereo unspecified) | inconclusive [inhibitor, full curve, poor fit] | – |
| CC(=O)Oc1ccc2nc(/C=C/c3ccccc3)oc(=O)c2c1 | – | inactive: 2.44% |
| O=C(CSc1ncnc2sc3c(c12)CCCC3)c1ccco1 | inconclusive [inhibitor, partial curve, poor fit] | – |
| CSc1nc(Oc2ccccc2)c2sccc2n1 | inconclusive [inhibitor, single point] | – |
| Cc1ccc2ccccc2c1C(O)c1ncc(-c2ccccc2)[nH]1 (stereo unspecified) | inconclusive [inhibitor, single point] | – |
| Cc1ccc2cc(NC(=O)c3cccc(F)c3)ccc2n1 | inconclusive [inhibitor, single point] | – |
| CSc1ccc(Cn2c(C)c(C(=O)NCc3ccc(F)cc3)sc2=O)cc1 | inconclusive [inhibitor, single point] | – |
| O=[N+]([O-])c1cc(C=NN2CCCCCC2)ccc1Cl | inconclusive [inhibitor, single point] | – |
| COc1ccc(Cl)c(N2CCN(CCCNC(=O)Nc3ccc(C)cc3)CC2)c1 | inconclusive [inhibitor, partial curve, poor fit] | – |
| CC(=O)N(CCCc1ccc(C(C)(C)C)cc1)CCCN(C)C | inconclusive [inhibitor, partial curve, poor fit] | – |
| Cc1ccc(NCC(=O)Nc2ccc(F)c(Cl)c2)cc1S(=O)(=O)N1CCOCC1 | inconclusive [inhibitor, single point] | – |
| COc1nccnc1NS(=O)(=O)c1ccc(NC(=S)NC(=O)c2ccccc2)cc1 | – | inactive: 2.01% |
| CC(C)n1c(NCc2ccccc2O)nc2ccccc21 | inconclusive [inhibitor, partial curve, poor fit] | – |

| Structure (SMILES) | Potency | activity change, negative = inhibition |
| --- | --- | --- |
| CCNC(=S)N/N=C(\C)c1cccc([N+](=O)[O-])c1 | inconclusive [inhibitor, single point] | – |
| COc1ccc(CNc2ccc(C)c(C)c2)c(OC)c1OC | inconclusive [inhibitor, single point] | – |
| COc1cc(C)c(C)cc1S(=O)(=O)N1CCN(Cc2ccccc2)CC1 | inconclusive [inhibitor, single point] | – |
| Cc1cnc(Nc2nc3ccccc3o2)nc1C(=O)Nc1cccc(C(F)(F)F)c1 | inconclusive [inhibitor, full curve, poor fit] | – |
| COc1ccc(C)cc1S(=O)(=O)NCC(c1ccc2c(c1)OCO2)N1CCN(C)CC1 (stereo unspecified) | inconclusive [inhibitor, single point] | – |
| Cc1ccc(NC(=O)c2ncn(CCCNCC3CCCCC3)n2)cc1C | inconclusive [inhibitor, single point] | – |
| Cc1ccc(S(=O)(=O)NNC(=S)Nc2c(Cl)cccc2Cl)cc1 | – | inactive: -0.231% |
| CCc1ccccc1N1CC(c2nc3ccccc3n2Cc2cccc(C)c2)CC1=O (stereo unspecified) | inconclusive [inhibitor, partial curve, poor fit] | – |
| COC(=O)CN1C(=O)[C@H]2[C@@H](/C=C/c3ccccc3)N3C(=O)CN(Cc4ccc(-c5ccccc5)cc4)C(=O)[C@@]3(C)[C@H]2C1=O | – | inactive: 6.4% |
| O=C(CSc1ncnc2ccccc12)Nc1cccc(S(=O)(=O)N2CCOCC2)c1 | inconclusive [inhibitor, single point] | – |
| Cc1cccc(N(CC(=O)NC(C)c2ccccc2)S(=O)(=O)c2ccccc2)c1C (stereo unspecified) | inconclusive [inhibitor, partial curve, poor fit] | – |
| CCOC(=O)NC(=S)Nc1ccc(C(C)(C)C)cc1Br | inconclusive [inhibitor, partial curve, poor fit] | – |
| CCCC(=O)Nc1ccc(NC(=O)Cc2ccccc2)cn1 | inconclusive [inhibitor, full curve, poor fit] | – |
| CCOC(=O)c1[nH]c(C)c(C(=O)OCC(=O)N(Cc2ccccc2)C(C)C)c1C | inconclusive [inhibitor, single point] | – |
| CCOc1cc(C(=O)OCc2cc(=O)n3c(C)csc3n2)cc(OCC)c1OCC | – | inactive: 2.73% |
| Cc1cccc(S(=O)C(c2ccccc2)c2ccccc2)c1 (stereo unspecified) | inconclusive [inhibitor, partial curve, poor fit] | – |
| Cn1nc(-c2ccc(Cl)cc2)c2cc(C(=O)NCC3CCCO3)sc21 (stereo unspecified) | inconclusive [inhibitor, single point] | – |
| Cc1ccc(N=C2SCCCN2C(=O)c2ccco2)cc1Cl | inconclusive [inhibitor, single point] | – |
| CC(C)C(=O)N1CCC(Cc2ccccc2)CC1 | inconclusive [inhibitor, single point] | – |
| CSc1ccc(Cn2c(C)c(C(=O)NCc3cccs3)sc2=O)cc1 | inconclusive [inhibitor, single point] | – |
